Experimental data: PubChem BioAssay AID624417 (National Center for Advancing Translational Sciences (NCATS), 2012)
In all, about 410,000 compounds went through this assay and about 6,400 (1.6%) were called active. Inconclusive means that the source gave no clear call. Such entries were picked first, then a sample of the others. Calls follow the shape of the dose curve; as a rule, active = well fitted inhibition curve with a large enough effect; inconclusive = small, poorly fitted or top-dose-only effect; inactive = no such curve, though single readings can be large or run the other way. Potencies of inconclusive entries are doubtful fits and often do not repeat.

target: Glucagon-like peptide 1 receptor (Homo sapiens) (UniProt P43220); test: qHTS of GLP-1 Receptor Inverse Agonists (Inhibition Mode); settings: HEK293 GLP-1R CRE-luciferase, luminescence, 24 h, GLP-1R form is constitutively active; activity change, negative = inhibition: at 38.3 µM (top of the series) unless noted; also: nearly all actives have a fitted effect of over 55% in size
In short: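 Inverse agonists were sought by their lowering of basal cAMP reporter luciferase output in HEK293 cells stably carrying constitutively active human GLP-1R, after 24 h compound treatment.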
% is scaled to controls: 0 for no effect and ±100 for the full control effect; potency is read from the fitted curve at half-maximal effect; tags tell the direction and shape of the fitted curve.

UniProt P43220, sequence (P43220 whole entry, looked up): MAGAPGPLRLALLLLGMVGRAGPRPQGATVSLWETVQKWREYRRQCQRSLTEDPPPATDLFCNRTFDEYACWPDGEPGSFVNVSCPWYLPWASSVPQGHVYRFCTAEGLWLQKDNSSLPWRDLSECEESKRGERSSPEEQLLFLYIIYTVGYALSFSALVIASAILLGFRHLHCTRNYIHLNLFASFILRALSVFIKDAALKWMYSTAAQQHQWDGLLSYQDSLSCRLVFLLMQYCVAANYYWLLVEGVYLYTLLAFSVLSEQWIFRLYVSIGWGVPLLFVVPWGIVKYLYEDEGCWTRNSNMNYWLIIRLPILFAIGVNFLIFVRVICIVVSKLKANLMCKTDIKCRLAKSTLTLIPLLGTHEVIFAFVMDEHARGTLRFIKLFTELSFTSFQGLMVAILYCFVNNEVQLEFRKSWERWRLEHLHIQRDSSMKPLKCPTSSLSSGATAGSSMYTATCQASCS

Potency, active:
CCc1cccc(NC2c3ccccc3C(=O)N2c2ccc(C)cn2)c1 (stereo not given) 12.6 µM

Potency, inconclusive:
CN(C)C(CNC(=O)c1cccc(S(=O)(=O)N2CCN(c3ccc(F)cc3)CC2)c1)c1ccccc1 (stereo not given) 6.31 µM [inhibitor, full curve, poor fit]
CC(C)CCN1C(=O)c2cccc3c(N)ccc(c23)C1=O 28.2 µM [inhibitor, single point]
C[C@@H]1CC=C[C@H]2[C@H]1C(=O)N(Cc1ccccc1)[C@H]2c1ccc(Br)cc1F 11.2 µM [inhibitor, partial curve, poor fit]
Cc1ccc(-n2c(C)cc(/C=N/NC(N)=S)c2C)cc1 28.2 µM [inhibitor, single point]
CCOc1ccc(CCNC(=O)c2ccc3c(=O)n4c(nc3c2)CCCCC4)cc1 10 µM [inhibitor, partial curve, poor fit]
CCc1cccc(CC)c1NC(=S)N1CCn2cccc2C1c1cccnc1 (stereo not given) 31.6 µM [inhibitor, single point]
NC(=O)c1ccsc1NC(=O)CN1CCN(S(=O)(=O)c2ccccc2C(F)(F)F)CC1 28.2 µM [inhibitor, single point]
CC1CN(C(=O)CCC(=O)NCCCc2ccccc2)c2ccccc2O1 (stereo not given) 31.6 µM [inhibitor, single point]
N#Cc1c(Sc2ncc(C(F)(F)F)cc2Cl)nsc1C/C=N\OCc1ccccc1Br 14.1 µM [inhibitor, single point]
O=C(CS(=O)CC(=O)Nc1cccc2c1CCCC2)Nc1ccc(F)cc1 (stereo not given) 28.2 µM [inhibitor, single point]
O=C(Cn1nc(-c2ccco2)ccc1=O)Nc1ccc(Cl)c(Cl)c1 28.2 µM [inhibitor, single point]
O=C(Nc1nc2c(s1)CN(Cc1ccccc1)CC2)C1CCC1 10 µM [inhibitor, single point]
CSc1ccc(Cn2c(C)c(C(=O)NCc3cccc(Cl)c3)sc2=O)cc1 12.6 µM [inhibitor, partial curve, poor fit]
O=C(CSc1nnc(NC(=O)c2ccccc2F)s1)NC1CCCC1 14.1 µM [inhibitor, single point]
Cc1ccsc1CN(C(=O)c1oc2cc(Br)ccc2c1C)C1CCS(=O)(=O)C1 (stereo not given) 28.2 µM [inhibitor, single point]
Cc1cc(/C=N/NC(=O)c2ccncc2)c(C)n1-c1cccc(C(F)(F)F)c1 28.2 µM [inhibitor, single point]
COc1ccc(C)cc1N(C(=O)c1snc(C(N)=O)c1N)C(C(=O)NC1CCCCC1)c1ccc(C)o1 (stereo not given) 15.8 µM [inhibitor, single point]
NC(Cc1ccc(F)cc1)c1csc(Nc2ccc(S(N)(=O)=O)cc2)n1 (stereo not given) 8.91 µM [inhibitor, partial curve, poor fit]
CCC(C)(C(=O)NC1CCCCC1)N(C(=O)Cc1cccs1)c1ccccc1 (stereo not given) 28.2 µM [inhibitor, single point]
COc1cccc(CC2(CO)CCCN(Cc3cc(F)ccc3-n3cccn3)C2)c1 (stereo not given) 5.01 µM [inhibitor, partial curve]
CC1(C)CC(NC(=O)C2CCN(S(=O)(=O)c3cccc(C(F)(F)F)c3)CC2)CC(C)(C)N1 31.6 µM [inhibitor, single point]
O=C(CSc1ccc(Br)cc1)N1CCN(S(=O)(=O)c2ccccc2)CC1 10 µM [inhibitor, partial curve, poor fit]
OC(CCCN1CCCCC1)(c1ccccc1)c1ccc(C(F)(F)F)cc1 (stereo not given) 11.2 µM [inhibitor, partial curve]
Cc1ccc(N2C(=O)CN(Cc3sccc3C)C2=S)cc1C 28.2 µM [inhibitor, single point]
CCN1C(=O)[C@H]2[C@@H](c3ccc(-c4ccc(C(C)=O)cc4)c(OC)c3)N3CCCC[C@@]3(C(=O)OC)[C@H]2C1=O 10 µM [inhibitor, partial curve, poor fit]
CC(C)CCC(CCNCc1ccccn1)c1ccc(Cl)cc1 (stereo not given) 10 µM [inhibitor, partial curve, poor fit]
CC(C)(C)c1ccccc1NC(=S)NC1CCCC1 28.2 µM [inhibitor, single point]
Cc1cccc(NC(=O)C(=O)NCC2CCCN2S(=O)(=O)c2ccccc2)c1 (stereo not given) 3.55 µM [inhibitor, partial curve, poor fit]
OC(c1ccc(Cl)c(Cl)c1)c1ncc(-c2ccc(Cl)cc2)[nH]1 (stereo not given) 17.8 µM [inhibitor, single point]
CCOC(=O)C/C(N)=N/NC(=O)c1ccc(Cl)cc1Cl 22.4 µM [inhibitor, single point]
CC(C)c1ccc(OCC(=O)NCc2ccccc2)cc1 28.2 µM [inhibitor, single point]
CC(C)N1C(=S)N(Cc2ccco2)C(=O)C1CC(=O)Nc1ccccc1 (stereo not given) 10 µM [inhibitor, partial curve, poor fit]
COC(=O)c1nn(-c2ccccc2)c(Sc2ccc(C)cc2)c1/C=N/O 2.51 µM [inhibitor, full curve, poor fit]
CCOC(=O)C1=C[C@@H](C(C)(C)C)N(S(=O)(=O)c2ccc(C)cc2)[C@H]1c1ccc(Cl)c(Cl)c1 7.08 µM [inhibitor, partial curve, poor fit]
COc1ccccc1[C@H]1C(c2ccc(F)cc2)=NN(c2ccccc2)[C@@H]1CO 28.2 µM [inhibitor, single point]
CN(C1CCCCC1)S(=O)(=O)c1cccc(C(=O)OCC(=O)NC2CCCc3ccccc32)c1 (stereo not given) 22.4 µM [inhibitor, single point]
CCCOc1c(Cl)cc(C(=O)N(Cc2cccc(OC)c2)C2CCS(=O)(=O)C2)cc1Cl (stereo not given) 3.16 µM [inhibitor, single point]
CN(C)S(=O)(=O)c1ccc(C(=O)Nc2nc(-c3cccs3)cs2)cc1 1.26 µM [inhibitor, full curve, poor fit]
CN(CC(=O)Nc1ccccc1Br)C(=O)c1ccc(COc2ccccc2)cc1 11.2 µM [inhibitor, partial curve, poor fit]
N#C/C(=C\c1ccc[nH]1)Sc1nc2ccccc2s1 11.2 µM [inhibitor, single point]
CCOc1ccc(NC(=O)c2cnc(N3CCCCC3)c3ccccc23)cc1 12.6 µM [inhibitor, single point]
COc1ccc(OC(=O)c2c(C)nn(-c3ccccc3)c2C)cc1 10 µM [inhibitor, single point]
COc1ccc2nc(Nc3ccccc3OC)sc2c1 11.2 µM [inhibitor, partial curve, poor fit]
CCOC(=O)C1=C(C)NC(=O)NC1c1ccc(N2CCC(c3ccccc3)=N2)cc1 (stereo not given) 20 µM [inhibitor, single point]

Activity change, negative = inhibition, inactive:
C=CCN1C(=O)/C(=C/c2ccc(O)c(OC)c2)S/C1=N/c1nccs1 27.8%
CCOc1ccccc1NC(=O)Cn1cc(C(=O)c2ccc(Cl)cc2)c(=O)c2ccc(C)nc21 -4.45%
COc1ccc(C(CNC(=O)/C=C/c2c(Cl)nc3ccccn23)N(C)C)cc1 (stereo not given) -19.6%
C#CCCc1ccccc1/C=[N+](/C)[O-] 8.78%
CC(=O)Nc1ccc(NC(=O)C(NC(=O)c2ccc(Cl)cc2)C(C)C)cc1 (stereo not given) 8.83%
Cc1c(NC(=S)NC(=O)c2ccc(Br)o2)c(=O)n(-c2ccccc2)n1C 25.4%
COc1nc(Cl)cn(-c2ccc(C)cc2)c1=O 15%
COc1cc2c(cc1OC)CN(Cc1cc(=O)oc3cc(C)c(C)cc13)CC2 0.219%
CC(C)(C)c1ccc(C(=O)c2c[nH]c(C(=O)NCc3cccnc3)c2)cc1 107%
Cc1cc(C)nc(NN2C(=O)/C(=C/c3ccccc3)SC2=S)n1 1.71%
CC(C)(C)c1csc(NC(=O)c2ccncc2)n1 25.5%
O=C(COC(=O)c1ccccn1)Nc1nc(-c2cccc([N+](=O)[O-])c2)cs1 17.3%
COc1ccc(/C(N)=N/OC(=O)CCCN2C(=O)c3ccccc3C2=O)cc1OC 19.2% [at 7.66 µM]
Cn1c(-c2ccc(Cl)cc2)cnc1N -5.19%
COc1ccc(Cn2c(=N)c(C(=O)NC3CCCCC3)cc3c(=O)n4ccccc4nc32)cc1 74.1%
O=C(CCCCCn1c(=S)[nH]c2ccc(N3CCOCC3)cc2c1=O)NCc1cccc(Cl)c1 -4.84%
COc1ccc2[nH]c(=O)c(CN(CCc3ccccc3)Cc3nnnn3CC3CCCO3)cc2c1 (stereo not given) 19.5%
CCC(=O)OCC(=O)Nc1cc(S(=O)(=O)N(C)C)ccc1Cl 3.72%
COc1cc(N)c(Cl)cc1C(=O)N[C@H]1CCN(CCCOc2ccc(F)cc2)C[C@H]1OC -17%
O=c1ccc2ccc(O[C@@H]3O[C@H](CO[C@@H]4OC[C@](O)(CO)[C@H]4O)[C@@H](O)[C@H](O)[C@H]3O)cc2o1 6.44%
